What is called pIC50 is the negative decadic logarithm of the IC50, by convention in mol/L. In general, pEC50 refers to the EC50 on a negative log10 scale, so that one unit is a factor of ten. In general, pKi refers to −log10 of the Ki, conventionally taken in molar units. Read a high pKi as a low Ki.

Assay [1] concerns the target T1, human Serotonin 5-HT2A receptor (Homo sapiens, UniProt P28223).
T1 construct: expressed in transfected cells; host or cells: CHO-K1
Kind of assay: IPOne HTRF assay, antagonist mode, 5-HT2A. Type of assay: cell-based. The settings on record: IP-one. Background: In TR-FRET formats the signal depends on donor and acceptor labels being close together.

The target of assay [2] is T1, human Serotonin 5-HT2A receptor. Kind of assay: IPOne HTRF assay, agonist mode, 5-HT2A. It is filed as cell-based. The settings on record: IP-one.
Assay [3] has the same target. Kind of assay: Radioligand binding competition, filtration binding assay, 5-HT2A (labeled ketanserin). The settings on record: for pKi: CHO-K1 membranes.
Setting [4] is: average where marked c, read-out: 5-HT2A (agonist mode) EC50.
Where [5] appears, read: [3H]-Ketanserin, average where marked c, read-out: Binding 5-HT2A IC50.
The mark [6] stands for this setting: numbers in parentheses that were averaged, read-out: 5-HT2A (agonist mode) EC50, single determinations.
Where [7] appears, read: numbers in parentheses that were averaged, read-out: Binding 5-HT2A IC50, single determinations.

Molecules are shown by their SMILES. pEC50, pIC50, pKi: −log10 of the molar value. Several values for one entry are separate records, joined by “and”; a condition that tells them apart may be missing. Equal values may be shown once. Read-outs that look alike come from different tables or passages of the source.

T1 sequence (P28223 whole entry): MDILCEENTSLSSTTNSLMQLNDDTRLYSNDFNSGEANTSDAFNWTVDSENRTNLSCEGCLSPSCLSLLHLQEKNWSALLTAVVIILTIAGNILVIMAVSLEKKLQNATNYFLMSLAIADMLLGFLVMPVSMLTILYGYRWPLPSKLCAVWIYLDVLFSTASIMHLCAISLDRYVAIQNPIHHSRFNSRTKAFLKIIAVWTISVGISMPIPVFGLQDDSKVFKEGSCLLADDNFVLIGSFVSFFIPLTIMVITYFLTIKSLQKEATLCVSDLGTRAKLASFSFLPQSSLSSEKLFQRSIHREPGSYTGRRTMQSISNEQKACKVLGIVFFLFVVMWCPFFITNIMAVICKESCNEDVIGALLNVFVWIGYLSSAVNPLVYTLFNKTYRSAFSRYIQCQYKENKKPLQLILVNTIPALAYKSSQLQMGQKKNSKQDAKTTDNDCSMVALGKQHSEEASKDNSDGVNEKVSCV

Regarding `CNc1cc(OC)c(C(=O)N[C@H]2CCN(Cc3ccccc3)[C@H]2C)cc1Cl` (racemic) [Nemonapride, (±)-cis-N-(1-Benzyl-2-methylpyrrolidin-3-yl)-5-chloro-2-methoxy-4-methylaminobenzamide], the pIC50 was 8.19 in assay [1] and 8.00 in assay [3] (setting [5]). For the same compound, the pEC50 in assay [2] (setting [4]) is 8.26. Besides, the pKi in assay [3] ([3H]-Ketanserin) was 8.64.
Regarding `[2H]C([2H])([2H])Nc1cc(OC)c(C(=O)N[C@@H]2CCN(C([2H])([2H])c3ccccc3)[C@@H]2C)cc1Cl` [Example 1, 5-Chloro-N-((2R,3R)-1-(dideutero(phenyl)methyl)-2-methylpyrrolidin-3-yl)-2-methoxy-4-(trideuteromethylamino)benzamide], the pIC50 was less than 5.52 in assay [1]; 7.48 in assay [3] (setting [5]); 7.34 and 7.69 in assay [3] (setting [7]). Also, the pEC50 was 8.31 in assay [2] (setting [4]); 8.37 and 8.82 and 8.04 and 8.31 in assay [2] (setting [6]). The compound also had a pKi in assay [3] ([3H]-Ketanserin) of 8.13.
For the compound `CNc1cc(OC)c(C(=O)N[C@@H]2CCN(Cc3ccccc3)[C@@H]2C)cc1Cl` [cis (R,R) nemonapride, N-[(2R,3R)-1-benzyl-2-methylpyrrolidin-3-yl]-5-chloro-2-methoxy-4-(methylamino)benzamide], the pIC50 was less than 5.52 in assay [1]; 7.84 in assay [3] (setting [5]); 7.71 and 8.01 in assay [3] (setting [7]). In addition, the pEC50 in assay [2] (setting [4]) is 8.47; in assay [2] (setting [6]), 8.36 and 8.54 and 8.32 and 8.80. In assay [3] ([3H]-Ketanserin), this compound had a pKi of 8.48.

The values above are taken from US20250091990A1, “DEUTERATED ORGANIC COMPOUNDS AND USES THEREOF” (ENGRAIL THERAPEUTICS, INC., priority 2022, published 2025).
